Assay results as given in PubChem BioAssay AID1345082 (National Center for Advancing Translational Sciences (NCATS), 2018).
In all, about 94,000 compounds went through this assay and about 4,000 (4.3%) were called active. The inconclusive results got no clear call from the source; some entries with a clear call stand among them for comparison. Calls follow the shape of the dose curve; as a rule, active = well fitted inhibition curve with a large enough effect; inconclusive = small, poorly fitted or top-dose-only effect; inactive = no such curve, though single readings can be large or run the other way. Potencies beside an inconclusive call are fits to weak or partial responses and may not hold up.
% is scaled to controls: 0 for no effect and ±100 for the full control effect; potency is read from the fitted curve at half-maximal effect; tags tell the direction and shape of the fitted curve.

Experiment: Cytotoxic Profiling in NIH 3T3 Cell Line of Diverse Libraries Using Quantitative High-Throughput Screening; also: nearly all actives have a fitted effect of over 55% in size
Details: NIH 3T3 viability, CellTiter-Glo ATP luminescence, 48-72 h; activity change, negative = cytotoxicity: at 96.7 µM (top of the series) unless noted; series mostly up to 96.7 µM
Outline: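 First NIH 3T3 cells are plated at 400 cells/well; next compound is pinned in; then plates incubate 48 or 72 hr at 37 °C; finally CellTiter-Glo is added and luminescence read after 10 min.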
With `O=C(CCC1CCCC1)N1CCC2(CC1)CC(CO)N(C(=O)c1ccccc1)C2` (stereo not given) the “activity change, negative = cytotoxicity” value was inactive: -36.7%.
With `Cc1ccc(C(=O)N[C@H]2CO[C@H]3[C@@H]2OC[C@@H]3Nc2nccc(-c3ccc4c(c3)OCO4)n2)cc1` the Potency was inconclusive: 50.1 µM [inhibitor, partial curve, poor fit].
For `O=C(O)Cn1ccc2cc(OCc3cccc(-c4ccccc4O)c3)cnc21`, the Potency was inconclusive: 100 µM [inhibitor, partial curve, poor fit].
For `O=C(OCc1ccccc1)N1CCC(Oc2cnc3c(ccn3-c3cncnc3)c2)CC1`, the Potency was inconclusive: 5.62 µM [inhibitor, partial curve, poor fit].
With `COc1ccc(-c2nc(-c3c(C)noc3C)cc3cc(C(C)C)oc23)cn1` the Potency was inconclusive: 70.8 µM [inhibitor, partial curve].
For `CN(CCC(N)=O)Cc1ccccc1OCC(O)CN1CCc2ccccc2C1` (stereo not given), the Potency was inconclusive: 50.1 µM [inhibitor, partial curve, poor fit].
In the case of `Cc1sc2cc(C(=O)N3CCCC3)[nH]c2c1CN1CCCCC1`, the “activity change, negative = cytotoxicity” value is reported as inactive: 4.36%.
In the case of `Cn1ncc2c(C(=O)Nc3ccc(Cl)cc3)cc(-c3ccccc3C(F)(F)F)nc21`, the Potency is reported as inconclusive: 28.2 µM [inhibitor, full curve].
In the case of `CC(=O)Nc1ccc([S+](=O)([O-])NC2CCN(CCn3nc4n(c3=O)CCCC4)C2)cc1` (stereo not given), the “activity change, negative = cytotoxicity” value is reported as inactive: -0.0225%.
In the case of `Cn1cnc(S(=O)(=O)N2C[C@@H](F)C[C@H]2C(=O)N2CCCCC2)c1`, the “activity change, negative = cytotoxicity” value is reported as inactive: 4.03%.
For `O=C(CNC(=O)c1ccc(-c2cccc(C(F)(F)F)c2)cc1)NCc1cccc(F)c1`, the Potency was inconclusive: 15.8 µM [inhibitor, partial curve].
With `Oc1cccc(-c2cc(-c3ccncc3)c3cncn3c2)c1` the Potency was inconclusive: 15.8 µM [inhibitor, full curve, poor fit].
With `COc1ccccc1-c1cc(C(=O)NC2CCOC2)c2cnn(C)c2n1` (stereo not given) the “activity change, negative = cytotoxicity” value was inactive: -17.3% [at 138 µM].
In the case of `CC(C)(C)c1oc(C(N)=O)cc1CN1CCC2(CCCNC2=O)C1` (stereo not given), the “activity change, negative = cytotoxicity” value is reported as inactive: -5.91%.
For `COc1ccc(CCNC(=O)c2c(C)noc2-c2cccs2)cc1OC`, the Potency was inconclusive: 56.2 µM [inhibitor, partial curve, poor fit].
In the case of `CC(=O)Oc1c(-c2ccc(NC(=O)c3ccc4c(c3)OCO4)cc2)c(C2CC2)nn1-c1cccc(F)c1`, the Potency is reported as inconclusive: 70.8 µM [inhibitor, partial curve, poor fit].
With `Cn1cc(-c2ccc([S+](C)(=O)[O-])cc2)c2nc(CNc3ccccc3)cn2c1=O` the Potency was inconclusive: 89.1 µM [inhibitor, partial curve, poor fit].
In the case of `COc1ccc(-c2cc(N3CCC(NC(=O)c4ccc(F)cc4Cl)CC3)n[nH]2)cc1`, the Potency is reported as inconclusive: 35.5 µM [inhibitor, partial curve].
With `CC(C)NS(=O)(=O)c1ccc2c(c1)nc(-c1ccc(CO)o1)n2C(C)C` the Potency was inconclusive: 50.1 µM [inhibitor, partial curve, poor fit].
For `Cn1cccc1C(=O)N1CCC2(CC1)C(=O)NCN2Cc1ccc(Cl)cc1`, the Potency was inconclusive: 31.6 µM [inhibitor, partial curve].
With `O=C(NC1CCc2ccccc21)c1cc2n(n1)CC(c1ccc(Cl)cc1)OC2` (stereo not given) the Potency was inconclusive: 44.7 µM [inhibitor, partial curve, poor fit].
With `O=C1NC2(CCN(Cc3ccccn3)CC2)COc2ccccc21` the “activity change, negative = cytotoxicity” value was inactive: -16.6% [at 138 µM].
For `O=C(c1ccc(F)cc1)N1CCCC(C(=O)N2CCC(c3nc4ccncc4[nH]3)C2)C1` (stereo not given), the “activity change, negative = cytotoxicity” value was inactive: -5.95%.
In the case of `O=C(NCc1ccccc1)N1CCC(N2C(=O)C3(CCCCC3)C2c2ccncc2)CC1` (stereo not given), the “activity change, negative = cytotoxicity” value is reported as inactive: -4.09%.
With `C[S+](=O)([O-])c1cccc(NC(=O)c2cnc3n2CCN(CCc2ccccc2)CC3)c1` the “activity change, negative = cytotoxicity” value was inactive: -10.5%.
With `O=C1CC2(CCN(CC3CCCCC3)CC2)Oc2ccccc2N1c1ccccc1` the Potency was inconclusive: 39.8 µM [inhibitor, partial curve].
In the case of `COc1ccc(C(=O)N2CCC(n3c(C)cnc3C3CCC3)C2)cn1` (stereo not given), the “outcome” value is reported as “inactive”.
For `COc1ccc(C(=O)NCCn2ccn3nc(-c4cc(C)ccc4C)cc3c2=O)cc1OC`, the Potency was inconclusive: 50.1 µM [inhibitor, partial curve, poor fit].
In the case of `CCN1CC2(CCN(C(=O)COC(C)C)CC2)CC(c2ccccc2)C1=O` (stereo not given), the “activity change, negative = cytotoxicity” value is reported as inactive: 0.253%.
In the case of `COc1ccc(-c2ccc(C(=O)N3CCN(C(=O)c4ccc(Cl)cc4)CC3)cc2)nn1`, the Potency is reported as inconclusive: 50.1 µM [inhibitor, partial curve, poor fit].
For `C#CCN(Cc1nc(-c2ccc(OC)c(C)c2OC)oc1C)C1CCCCC1`, the Potency was inconclusive: 50.1 µM [inhibitor, partial curve, poor fit].
With `CCC(C)NC(=O)c1ccc(-c2ccc(OC)nn2)cc1` (stereo not given) the “activity change, negative = cytotoxicity” value was inactive: -18.3% [at 138 µM].
With `COc1cccc(CC(=O)N2CCC(N3C(=O)CCC3C(=O)NCc3ccccc3)CC2)c1` (stereo not given) the “activity change, negative = cytotoxicity” value was inactive: -14.4%.
For `COc1ccccc1Oc1c(CCC(=O)NCC2CCCO2)c(C)nn1-c1ccc(F)cc1` (stereo not given), the Potency was inconclusive: 44.7 µM [inhibitor, partial curve, poor fit].
In the case of `O=C(CCC1CCCN(Cc2ccc(-c3ccccc3)cc2)C1)N1CCOCC1` (stereo not given), the Potency is reported as inconclusive: 50.1 µM [inhibitor, partial curve, poor fit].
With `Cc1nn(-c2ccccc2)c2c1C(C1CC1)N(C1CCCN([S+](=O)([O-])c3cccs3)C1)C2=O` (stereo not given) the “activity change, negative = cytotoxicity” value was inactive: -11.8%.
For `Cc1nn(-c2ccc(F)cc2)c(C)c1[C@@H]1C=C[C@@H](NC(=O)NC(C)C)C1`, the Potency was inconclusive: 79.4 µM [inhibitor, partial curve, poor fit].
With `Cc1ccc(-c2cc3c(=O)n(CCNC(=O)c4ccc5ccccc5n4)ccn3n2)c(C)c1` the Potency was inconclusive: 44.7 µM [inhibitor, partial curve, poor fit].
With `O=C(c1ccc2c(c1)OCO2)N1CCC2(C1)C(=O)Nc1ccccc12` (stereo not given) the Potency was inconclusive: 44.7 µM [inhibitor, partial curve].
With `CCOC(=O)C1CCCN(C(=O)C2CC(c3ccc(CC)cc3)CN(C(=O)c3ccoc3)C2)C1` (stereo not given) the Potency was inconclusive: 15.8 µM [inhibitor, full curve, poor fit].
